PubChem BioAssay AID602393 (Broad Institute, 2012)
Among all 350,000 compounds or so, about 7,000 (2%) were called active. This list was built around the results that the source calls inconclusive (neither active nor inactive); the mix of calls is not that of the screen. Rule as the data show it: active = activation above about 40%; inconclusive = no clear call, values can overlap the other calls; inactive = below that.

Experiment: raisers of Bmi1 knock-in reporter signal – mouse ES cells, Bmi1 luciferase knock-in, single point, esBAF inhibitor project, primary screen (AID 602393);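 also: 0% = median of the plate's neutral control wells and 100% = double that signal; a rise in the Bmi1 reporter signal indicates esBAF inhibition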
Conditions: 24 h, at 12.5 µM, active compounds read high, 100% = twice the neutral-well signal
With CCCN1C[C@@H](C)[C@H](OC)CN(C)C(=O)c2cc(NC(=O)c3ccccc3F)ccc2OC[C@H]1C the reporter increase was inconclusive: 40.3%.
In the case of NC(=O)c1ccccc1NC(=S)NC(=O)CCc1ccccc1, the reporter increase is reported as inactive: 1.5%.
With CCOC(=O)c1cccc(-c2c(-c3ccccc3)ncc3cc(OC)c(OC)cc23)c1 the reporter increase was active: 66.8%.
In the case of O=c1sc2ccccc2n1COc1ccccc1, the reporter increase is reported as inconclusive: 42.9%.
With COc1cccc(Nc2nnc(SCC(=O)N3CCOCC3)s2)c1 the reporter increase was inconclusive: 43.4%.
For Cc1ccc(C(=O)NNC(=O)c2ccc3c(c2)OCCO3)cc1, the reporter increase was inconclusive: 40.1%.
With O=C(O)CCN1C(=O)/C(=C\c2cccc(OCC(=O)Nc3ccc(Cl)cc3)c2)SC1=S the reporter increase was inconclusive: 56.9%.
For O=P(O)(O)c1ccccc1OCCOCCOCCOCCOc1ccccc1P(=O)(O)O, the reporter increase was inconclusive: 50.2%.
With CC(C)(C)C1CCC(=O)N(CCOc2ccccc2)CC1 (centres undefined) the reporter increase was inconclusive: 40.8%.
For COc1ccc(N2CCN(c3cnc4ccccc4n3)CC2)cc1, the reporter increase was active: 52.5%.
For CCCNC(=O)C[C@H]1CC[C@H]2[C@H](COc3ccc(NC(=O)c4cccc(C(F)(F)F)c4)cc3C(=O)N2C)O1, the reporter increase was inactive: 6.66%.
In the case of CNC(=O)C1=C(C)Nc2nc3ccccc3n2C1c1cccc(OC)c1 (centres undefined), the reporter increase is reported as inactive: 10.7%.
For O=[N+]([O-])c1cccc(-c2nc(-c3ccccc3)no2)c1, the reporter increase was active: 73.4%.
In the case of Cc1cc(C(=O)NNC(=S)Nc2ccccc2C)cs1, the reporter increase is reported as inconclusive: 40.6%.
With CN1C(=O)c2cc(NC(=O)C3CC3)ccc2OC[C@H]2O[C@H](CC(=O)NCc3ccccc3F)CC[C@@H]21 the reporter increase was inactive: -8.77%.
With COc1ccc(C(=O)O/N=C(\N)c2ccccc2)cc1OC the reporter increase was inconclusive: 32%.
In the case of O=[N+]([O-])c1cccc(C=NNc2ccccc2)c1, the reporter increase is reported as inconclusive: 44.8%.
With Cc1ccc(S(=O)(=O)N(C)C[C@H]2Oc3ccc(NC(=O)CCCN(C)C)cc3C(=O)N([C@H](C)CO)C[C@H]2C)cc1 the reporter increase was inactive: -1.47%.
With c1ccn2c(c1)nc1c2nc2ccccn21 the reporter increase was inconclusive: 42.5%.
For O=S(=O)(Nc1cccc(-c2ccc(N3CCOCC3)nn2)c1)c1ccc(Cl)c(Cl)c1, the reporter increase was inconclusive: 63.8%.
For O=C(c1ccc(O)cc1)c1ccc(Cl)cc1, the reporter increase was inconclusive: 42.5%.
With CO[C@H]1CN(C)C(=O)c2ccc(NC(=O)Nc3cc(F)ccc3F)cc2OC[C@H](C)N(C(=O)c2cnccn2)C[C@H]1C the reporter increase was inactive: 1.53%.
For c1coc(-c2nn3c(-c4ccco4)nnc3s2)c1, the reporter increase was inactive: -4.76%.
In the case of C[C@@H]1CN([C@H](C)CO)C(=O)c2cc(NS(=O)(=O)c3ccc(F)cc3)ccc2O[C@@H](C)CCCCO[C@H]1CN(C)Cc1ccncc1, the reporter increase is reported as inactive: 1.26%.
In the case of CCOc1ccc2nc(NC(=O)CSc3nnc(-c4ccncc4)n3CC3CCCO3)sc2c1 (centres undefined), the reporter increase is reported as inconclusive: 40.5%.
For Cc1ccc(NC(=O)CNCc2cccs2)c(Br)c1, the reporter increase was inconclusive: 40.3%.
With Cc1ccc(C(=O)N(c2ccccn2)C(C)c2ccco2)cc1C (centres undefined) the reporter increase was inconclusive: 40.3%.
For O=C(CCOc1ccccc1)Nc1ccc(Br)cc1, the reporter increase was inconclusive: 41.7%.
For Cc1ccc2nc(Cl)c(/C=C/C(=O)c3ccco3)cc2c1, the reporter increase was active: 50%.
For OC(c1ccccc1)c1ncc(-c2ccc(Cl)cc2)[nH]1 (centres undefined), the reporter increase was active: 47.5%.
With CCn1cnc2sc(C(=O)Oc3cccc(C)c3)c(C)c2c1=O the reporter increase was inconclusive: 40.5%.
With CCOC(=O)c1sc(=NC(=O)/C=C/c2ccccc2)n(C)c1C the reporter increase was inconclusive: 40%.
In the case of O=C(COc1ccc(F)cc1)Nc1nc2c(s1)CCCC2, the reporter increase is reported as inconclusive: 40.7%.
With Cc1nn(CCOc2ccccc2)c(=O)n1-c1c(F)cccc1F the reporter increase was inconclusive: 40.7%.
For Clc1ccc(COn2nnc3ccccc32)c(Cl)c1, the reporter increase was inconclusive: 42.6%.
With CC(NC(=O)/C(C#N)=C/c1ccc(N2CCOCC2)cc1)c1ccccc1 (centres undefined) the reporter increase was inactive: -2.91%.
In the case of Cc1ccccc1C(=O)Nc1ccc(Br)cn1, the reporter increase is reported as inconclusive: 46.9%.
For COc1ccc(NC(=O)CCCNC(=O)c2ccc(Cl)cc2)cc1S(=O)(=O)N1CCCCC1, the reporter increase was inactive: 3.12%.
In the case of Cc1ccc2[nH]c(C(=O)Nc3ccc(F)cc3)cc2c1, the reporter increase is reported as active: 61.9%.
In the case of O=C(C[C@@H]1CC[C@H]2[C@@H](COC[C@H](O)CN2CC2CCOCC2)O1)N1CCOCC1, the reporter increase is reported as inactive: 5.16%.
With Cc1ccc(S(=O)(=O)Nc2ccc3c(c2)CC(=O)N([C@@H](C)CO)C[C@@H](C)[C@@H](CN(C)S(=O)(=O)c2ccc(C)cc2)O3)cc1 the reporter increase was inactive: -9.68%.
With Cc1ccc(NC(=O)CCCC2CCCCC2)c(O)c1 the reporter increase was inconclusive: 41.9%.
With COc1ccc2oc(C(=O)Nc3ccc(C)cn3)c(C)c2c1 the reporter increase was inconclusive: 41.2%.
With Cc1ccc(O)c(N=NC2=C(O)CC(C)(C)CC2=O)c1 the reporter increase was inconclusive: 46.6%.
For Cn1c(NC(=O)CC2CCCCC2)cc(=O)n(C)c1=O, the reporter increase was inactive: -0.198%.
For C/C(=C\C(=O)c1ccccc1)Nc1cccc(O)c1, the reporter increase was inconclusive: 52.8%.
With Cc1ccc2cc(NC(=O)c3ccccc3C)ccc2n1 the reporter increase was inconclusive: 51.7%.
In the case of COc1ccc(COC(=O)c2n[nH]c3ccccc23)cc1F, the reporter increase is reported as inconclusive: 49.9%.
With O=C(O)c1ccccc1NCc1cccnc1 the reporter increase was inconclusive: 46.3%.
With C/C=C/c1cnc2c(c1)C(=O)N([C@@H](C)CO)C[C@@H](C)[C@H](CN(C)S(=O)(=O)c1ccc(OC)cc1)O2 the reporter increase was inactive: 0.966%.
With CC(=O)c1ccc(NC(=O)c2cccc(NC(=O)c3ccccc3)c2)cc1 the reporter increase was inconclusive: 41.8%.
For COCC(=O)N1C[C@@H]2[C@H](c3ccccc31)[C@@H](CO)N2Cc1ccccc1, the reporter increase was inactive: -0.154%.
With Clc1ccc2nc(-c3cccc(Br)c3)c(Cc3ccccc3)n2c1 the reporter increase was inconclusive: 40.8%.
In the case of C[C@@H]1CN([C@H](C)CO)C(=O)c2cccc(NC(=O)Nc3ccc4c(c3)OCO4)c2O[C@H]1CN(C)Cc1ccccc1, the reporter increase is reported as inconclusive: 41.9%.
In the case of CN(CC(=O)NCCc1ccccc1)Cc1ccco1, the reporter increase is reported as inconclusive: 44.5%.
With Cc1cc(C)c2sc(NC(=O)C3CC3)nc2c1 the reporter increase was inconclusive: 45.6%.
For C/C(=C\c1ccccc1)C(=O)Nc1nccs1, the reporter increase was inconclusive: 44.3%.
With C[C@H](CO)N1C[C@H](C)[C@@H](CN(C)C(=O)Cc2ccccc2)OCCCC[C@H](C)Oc2ccc(NC(=O)C3CCCCC3)cc2C1=O the reporter increase was inactive: 2.09%.
With CCC(C)C(=O)Nc1nnc(-c2cccs2)s1 (centres undefined) the reporter increase was inconclusive: 41.7%.
For CCCNC(=O)C[C@H]1CC[C@@H]2[C@H](COc3ccc(NC(=O)c4cc(F)cc(F)c4)cc3C(=O)N2C)O1, the reporter increase was inactive: 1.75%.
In the case of O=Cc1ccc(Oc2nc(Cl)ncc2F)cc1, the reporter increase is reported as inactive: -6.47%.
For Nc1nc(N)nc(-c2ccc(Cl)cc2)n1, the reporter increase was inconclusive: 72.9%.
For COc1ccc(S(=O)(=O)N(C)C[C@H]2Oc3ccc(NC(=O)NC(C)C)cc3C(=O)N([C@@H](C)CO)C[C@H]2C)cc1, the reporter increase was inactive: -5.97%.
In the case of O=C(N/N=C/c1ccc(F)cc1)c1cccc(NC(=O)c2ccccc2Cl)c1, the reporter increase is reported as inconclusive: 47.3%.
